Reference: publication PMC6919601, “Identification of Plasmodium dipeptidyl aminopeptidase allosteric inhibitors by high throughput screening” (PLoS ONE, 2019)
Read-outs that look alike come from different tables or passages of the source.

Tests used:
DPAP1 [1] = target: T1, DPAP1 (Plasmodium falciparum, UniProt Q8IIJ9); experiment: biochemical; format: biochemical; conditions: for inhibition at 10 µM: read-out: DPAP1 % Inhibition @ 10 uM; for DPAP Primary hit (Hit = 1): 10 μM HTS, 0 not defined
T1 sequence (Q8IIJ9 370-599 limits assumed): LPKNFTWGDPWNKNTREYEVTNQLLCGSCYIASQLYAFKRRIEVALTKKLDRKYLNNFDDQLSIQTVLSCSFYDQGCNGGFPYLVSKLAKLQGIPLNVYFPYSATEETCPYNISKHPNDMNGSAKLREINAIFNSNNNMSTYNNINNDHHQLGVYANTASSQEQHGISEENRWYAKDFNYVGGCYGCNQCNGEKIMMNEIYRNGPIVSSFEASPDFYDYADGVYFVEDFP
T1 sequence (Q8IIJ9 28-209 limits assumed): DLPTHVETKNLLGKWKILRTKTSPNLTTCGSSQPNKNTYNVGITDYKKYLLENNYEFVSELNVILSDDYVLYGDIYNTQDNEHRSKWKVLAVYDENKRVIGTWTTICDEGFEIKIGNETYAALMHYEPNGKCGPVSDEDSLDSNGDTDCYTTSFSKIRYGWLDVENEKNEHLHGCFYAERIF
T1 sequence (Q8IIJ9 600-700 limits assumed): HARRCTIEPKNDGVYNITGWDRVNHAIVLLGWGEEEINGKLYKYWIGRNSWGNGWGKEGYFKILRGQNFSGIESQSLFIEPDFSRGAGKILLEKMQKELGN

P. falciparum = experiment: Standard 72 h parasite replication assay; format: cell-based, Plasmodium falciparum; conditions: Plasmodium falciparum, 72h replication assay; for inhibition at 100 µM: read-out: Pf % Inh @ 100 μM; for EC50: 3 biological replicates, read-out: Pf EC50
bovine CatC = bovine CatC (Bos taurus, UniProt Q3ZCJ8); experiment: Dose response inhibition assay, CatC with GR-AMC substrate; conditions: for Emax: 0.5 h, read-out: Maximum % Inhibition CatC, substrate at Km
Chain of bovine CatC (Q3ZCJ8 231-394 limits assumed): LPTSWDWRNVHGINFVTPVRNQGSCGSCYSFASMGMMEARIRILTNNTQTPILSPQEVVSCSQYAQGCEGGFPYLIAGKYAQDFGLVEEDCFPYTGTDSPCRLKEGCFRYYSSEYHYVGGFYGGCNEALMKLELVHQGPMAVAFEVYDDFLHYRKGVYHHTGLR
Chain of bovine CatC (Q3ZCJ8 25-134 limits assumed): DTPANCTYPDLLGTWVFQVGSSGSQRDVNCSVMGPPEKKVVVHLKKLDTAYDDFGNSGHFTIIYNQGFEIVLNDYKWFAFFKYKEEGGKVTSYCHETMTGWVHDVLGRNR
Chain of bovine CatC (Q3ZCJ8 395-463 limits assumed): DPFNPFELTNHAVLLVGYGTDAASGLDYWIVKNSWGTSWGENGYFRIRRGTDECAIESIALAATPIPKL

[2] = system: WI-38 primary lung fibroblast; conditions: 10 uM; ref SMDC Assay #440; cited from earlier work
DPAP3 = DPAP3 (Plasmodium falciparum, UniProt Q8I1Y2); experiment: biochemical; conditions: for Emax: 0.5 h, read-out: Maximum % Inhibition DPAP3
Chain of DPAP3 (Q8I1Y2 entry or part of it): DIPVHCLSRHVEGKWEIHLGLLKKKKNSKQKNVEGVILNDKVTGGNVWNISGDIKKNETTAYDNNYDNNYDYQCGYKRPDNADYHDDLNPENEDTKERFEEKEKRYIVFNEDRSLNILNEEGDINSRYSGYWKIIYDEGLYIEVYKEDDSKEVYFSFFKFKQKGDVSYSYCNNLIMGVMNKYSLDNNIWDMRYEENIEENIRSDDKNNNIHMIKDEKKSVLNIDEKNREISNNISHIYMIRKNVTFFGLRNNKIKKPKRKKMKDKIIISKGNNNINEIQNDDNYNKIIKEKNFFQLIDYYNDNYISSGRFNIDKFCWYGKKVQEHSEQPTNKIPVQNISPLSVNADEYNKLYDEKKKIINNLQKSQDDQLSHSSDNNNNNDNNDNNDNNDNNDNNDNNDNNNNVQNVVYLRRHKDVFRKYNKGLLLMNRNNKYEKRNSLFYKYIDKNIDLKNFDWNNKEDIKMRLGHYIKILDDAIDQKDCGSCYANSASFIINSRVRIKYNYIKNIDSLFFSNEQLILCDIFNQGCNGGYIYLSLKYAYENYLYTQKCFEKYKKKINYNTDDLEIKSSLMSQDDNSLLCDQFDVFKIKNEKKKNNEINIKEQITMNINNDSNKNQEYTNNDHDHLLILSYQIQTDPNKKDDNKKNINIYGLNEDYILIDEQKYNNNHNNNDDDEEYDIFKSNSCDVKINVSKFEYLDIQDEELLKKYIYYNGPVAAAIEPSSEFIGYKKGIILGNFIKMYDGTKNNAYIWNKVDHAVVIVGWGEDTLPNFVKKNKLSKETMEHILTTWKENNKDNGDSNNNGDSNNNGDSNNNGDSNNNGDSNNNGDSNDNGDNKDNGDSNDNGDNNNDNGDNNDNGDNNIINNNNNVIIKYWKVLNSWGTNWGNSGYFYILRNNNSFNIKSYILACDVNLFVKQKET

FP3 [3] = target: T2, FP3 (Plasmodium falciparum, UniProt Q8IIL0); conditions: for IC50 FP3: FP3 1 nM, Z-LR-AMC at Km (20 μM), N.I. = no inhibition; for Selectivity towards FP3 compared to FP2: ratio of IC50 values
T2 sequence (Q8IIL0 243-492): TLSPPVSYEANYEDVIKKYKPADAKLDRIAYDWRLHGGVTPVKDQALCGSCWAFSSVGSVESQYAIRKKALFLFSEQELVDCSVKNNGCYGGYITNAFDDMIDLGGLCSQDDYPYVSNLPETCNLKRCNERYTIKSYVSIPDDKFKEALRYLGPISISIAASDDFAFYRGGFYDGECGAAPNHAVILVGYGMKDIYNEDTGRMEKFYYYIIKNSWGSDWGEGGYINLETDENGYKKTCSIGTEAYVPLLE

[4] = system: WI-38 primary lung fibroblast; experiment: cells; design: Cell toxicity screen in WI-38 primary lung fibroblasts at 10 uM (SMDC assay 440); conditions: Homo sapiens, sheet All cpds;, SMDC cell toxicity assay 440
DPAP1 [5] = target: T1, DPAP1; experiment: biochemical; format: biochemical; conditions: for Emax: 0.5 h, read-out: Maximum % Inhibition DPAP1
FP3 [6] = target: T2, FP3; experiment: biochemical; format: biochemical; conditions: for FP3 inhibition Model: COM competitive, UNC uncompetitive, P-M partial mixed, P-C partial competitive, P-NC partial non-competitive, P-U partial uncompetitive; for FP3 α: factor by which Km is modified at saturating inhibitor; for FP3 β: factor by which kcat (Vmax) is modified at saturating inhibitor
[7] = system: human foreskin fibroblast cells; experiment: Cytotoxicity assay, CellTiter-Glo; conditions: 24h treatment, 4 biological replicates
FP3 [8] = target: T2, FP3; experiment: biochemical; conditions: for Emax: 0.5 h, read-out: Maximum % Inhibition FP3, substrate at Km
DPAP1 [9] = target: T1, DPAP1; experiment: biochemical; format: biochemical; conditions: for DPAP1 inhibition Model: COM competitive, UNC uncompetitive, P-M partial mixed, P-C partial competitive, P-NC partial non-competitive, P-U partial uncompetitive; for DPAP1 α: factor by which Km is modified at saturating inhibitor; for DPAP1 β: factor by which kcat (Vmax) is modified at saturating inhibitor; for Ki: global fit to MOI model, standard error of fit in parentheses
CatC = CatC (Bos taurus, UniProt Q3ZCJ8); experiment: Mechanism of inhibition studies, CatC; format: biochemical, bovine; conditions: for CatC inhibition Model: COM competitive, UNC uncompetitive, P-M partial mixed, P-C partial competitive, P-NC partial non-competitive, P-U partial uncompetitive; for CatC α: factor by which Km is modified at saturating inhibitor; for CatC β: factor by which kcat (Vmax) is modified at saturating inhibitor
Chain of CatC (Q3ZCJ8 231-394 limits assumed): as the sequence (Q3ZCJ8 231-394 limits assumed) above
Chain of CatC (Q3ZCJ8 25-134 limits assumed): as the sequence (Q3ZCJ8 25-134 limits assumed) above
Chain of CatC (Q3ZCJ8 395-463 limits assumed): as the sequence (Q3ZCJ8 395-463 limits assumed) above

[10] = 10 μM compound, parasite lysates, (PR)2Rho, 30 min end-point
[11] = VR-ACC at Km, > = inhibition at the highest concentration, no baseline reached
[12] = global fit to MOI model, standard error of fit in parentheses, read-out: FP3 Ki
[13] = global fit to MOI model, standard error of fit in parentheses, read-out: CatC Ki

| Structure (SMILES) | inhibition at 10 µM (DPAP1 [1]; [10]) | inhibition at 100 µM (P. falciparum) | IC50 (bovine CatC) | Emax (bovine CatC) | Cell Toxicity WI-38 primary lung fibroblast %Inhibition @ 10 uM [2] | Emax (DPAP3) | inhibition at 10 µM [4] | IC50 (DPAP1 [5]) | Emax (DPAP1 [5]; [11]) | EC50 (P. falciparum) | FP3 inhibition Model (FP3 [6]) | Tox EC50 / Cytox EC50 [7] | IC50 (FP3 [8]) | Emax (FP3 [8]) | DPAP1 inhibition Model (DPAP1 [9]) | DPAP1 α (DPAP1 [9]) | DPAP1 β (DPAP1 [9]) | Ki (DPAP1 [9]) | DPAP Primary hit (Hit = 1) (DPAP1 [1]) | CatC inhibition Model (CatC) | also measured |
| --- | --- | --- | --- | --- | --- | --- | --- | --- | --- | --- | --- | --- | --- | --- | --- | --- | --- | --- | --- | --- | --- |
| Cc1nc(SCC(=O)O)c(C#N)c(C)c1C [SMDC39848, Cc1nc(SCC(=O)O)c(C#N)c(C)c1C] | 73% | 13% | ~100000 nM | > 50% | 11% | > 50% | 10.8% | 34000 nM | 94% | – | – | – | – | – | – | – | – | – | – | – | IC50 FP3 (FP3 [3]): N.I. |
| COc1cc(/C=C2/NC(=O)N(Cc3ccccc3F)C2=O)cc(Br)c1O [SMDC103222, COc1cc(\C=C/2\NC(=O)N(Cc3ccccc3F)C2=O)cc(Br)c1O] | 63% | 75% | 1400 nM | 90% | 14% | > 75% | 14.2% | 1700 nM | 50% | 23000 nM | uncompetitive | 400 (120) μM | 15900 nM | 100% | P-C | 2.12 (0.09) | = 1 | 1100 nM | – | – | FP3 inhibition Model (FP3 [6]; listed as 103222): UNC; Ki (FP3 [6]; [12]): 9100 nM |
| CC(Oc1cccc(Cl)c1)C(=O)Nc1sc2c(c1C(N)=O)CCCCC2 (stereo not drawn) [SMDC106517, CC(Oc1cccc(Cl)c1)C(=O)Nc2sc3CCCCCc3c2C(=O)N] | 61% | 83% | ~100000 nM | > 50% | 6% | 100% | – | 5700 nM | 67% | 15000 nM | – | 160 (40) μM | 7200 nM | 100% | P-M | 1.3 (0.2) | 0.85 (0.05) | 1000 nM | – | – | – |
| CCc1nccn1C(=O)c1cnn2c(C(F)F)cc(-c3ccccc3)nc12 [SMDC158691, CCc1nccn1C(=O)c2cnn3c(cc(nc23)c4ccccc4)C(F)F] | 76% | 88% | 9000 nM | 91% | 5.7% | – | – | 18000 nM | 88% | 9000 nM | – | 70 (8) μM | 2500 nM | 100% | – | – | – | – | – | – | – |
| CCN(C(=O)c1ccco1)c1nc(-c2ccccc2)cs1 [SMDC168314, CCN(C(=O)c1occc1)c2nc(cs2)c3ccccc3] | 73% | 35% | – | – | 13% | > 50% | 12.7% | 200000 nM | 100% | – | – | – | – | – | – | – | – | – | – | – | IC50 CatC (bovine CatC; CatC 1 nM, GR-AMC at Km (40 μM), N.I. = no inhibition): N.I.; IC50 FP3 (FP3 [3]): N.I. |
| CN1CSC2=C(C#N)C(c3ccccc3Cl)CC(=O)N2C1 (stereo not drawn) [SMDC170123, CN1CSC2=C(C#N)C(CC(=O)N2C1)c3ccccc3Cl] | – | 64% | 120 nM | 48% | 5.5% | 11% | – | – | – | > 100000 nM | P-M | – | 93 nM | 80% | P-M | 4.3 (1.3) | > 1 | – | 1 | P-NC | inhibition at 10 µM (DPAP1 [1]): 57%; Ki (CatC): 950 nM; CatC α (CatC): = 1; CatC β (CatC): 0.66 (0.03); Ki (FP3 [6]): 3800 nM; FP3 α (FP3 [6]): < 1; FP3 α (FP3 [6]; listed as 170123): 0.38 (0.09); FP3 β (FP3 [6]): 0.23 (0.03); IC50 (DPAP3): 1000 nM; Selectivity towards FP3 compared to FP2 (FP3 [3]): more than 50 fold; Emax (DPAP1 [5]): 78%; DPAP1 β (DPAP1 [9]; listed as 170123): 1.4 (0.3) |
| N#CC1=C2SCN(Cc3ccco3)CN2C(=O)CC1c1cccc(OCc2ccccc2)c1 (stereo not drawn) [SMDC170136, O=C1CC(C(=C2SCN(Cc3occc3)CN12)C#N)c4cccc(OCc5ccccc5)c4] | 67% | 79% | 70 nM | 65% | 18% | 10% | – | 1300 nM | 83% | 14000 nM | P-U | 180 (20) μM | 100 nM | 99% | P-C | 2.3 (0.1) | = 1 | 1400 nM | 1 | P-NC | CatC α (CatC): = 1; CatC β (CatC): 0.56 (0.02); Ki (CatC; [13]): 800 nM; FP3 α (FP3 [6]): 0.07 (0.02); FP3 β (FP3 [6]): 0.07 (0.02); Ki (FP3 [6]; [12]): 12000 nM |
| N#CC1=C2SCN(C3CCCCC3)CN2C(=O)CC1c1cccc2ccccc12 (stereo not drawn) [SMDC170156, O=C1CC(C(=C2SCN(CN12)C3CCCCC3)C#N)c4cccc5ccccc45] | 54% | 66% | 620 nM | 65% | 8% | 19% | – | 1100 nM | 73% | 31000 nM | – | 240 (50) μM | 610 nM | 95% | – | – | – | – | 1 | P-NC | CatC α (CatC): = 1; CatC β (CatC): 0.52 (0.04); Ki (CatC; [13]): 3700 nM |
| COc1cccc(C2CC(=O)N3CN(CCc4sccc4C)CSC3=C2C#N)c1 (stereo not drawn) [SMDC178790, COc1cccc(c1)C2CC(=O)N3CN(CCc4sccc4C)CSC3=C2C#N] | 57% | 74% | 330 nM | 66% | -4% | 18% | – | 840 nM | 60% | 4000 nM | – | 200 (50) μM | 270 nM | 92% | P-C | 2.7 (0.2) | = 1 | 400 nM | 1 | – | – |
| CCOc1ccc(C2CC(=O)N3CN(C(C)c4ccccc4)CSC3=C2C#N)cc1 (stereo not drawn) [SMDC178822, CCOc1ccc(cc1)C2CC(=O)N3CN(CSC3=C2C#N)C(C)c4ccccc4] | 53% | 78% | 120 nM | 48% | 0% | 16% | – | 650 nM | 82% | 28000 nM | – | 100 (25) μM | 80 nM | 99% | – | – | – | – | 1 | – | Selectivity towards FP3 compared to FP2 (FP3 [3]): more than 50 fold |
